Among the data in the RNAGym collection of RNA variant scans (doi:10.7554/elife.90254) are self-cleavage values, retold here.

The source gives no read counts; variants with many changes may rest on few reads.

To fix the notation:
B1: LINE1-mini (parent)
chain: GGCAGAGCUCAACACAGCGUGGCAAAGUGGCUGUGGCUAGACUGCC

The data set covers variants of B1. The data set can be described thus: self-cleavage, relative activity (ratio to wild type); higher = more cleavage; in vitro, sequencing; the parent is a self-cleaving ribozyme.
Take A12G C15U A16G A41G C46U: the self-cleavage worked out at 0.01. For A11U G17U U20G G44U C46U, the self-cleavage came out at 0.02.

For the variant A12G G19U G29C C31U G40U, the self-cleavage was 0.02. The value for A11G C18A G33C U34A was 0.01; that for A11U C31G U34C A41G C42G was 0.

As to A12C C23U G27C U32A G40U, the self-cleavage came to 0. As to A12C C13U U20A, the self-cleavage stood at 0.05. The value for A11G G17C U38A was 0.02; that for A11G G19A A25C C31U G40C was 0.02; that for A11U A24C U34A was 0.01. The value for A12C G33U G36U C37U C42A was 0; that for A12G C18A U28G U34A was 0.04. The result for A12G G17C G35U A41U reads 0.03; that for A11G C23A G27C C45A C46U, 0.01. For the variant A11U A25G G33U G40U, the self-cleavage was 0.02. As to A11U C13G G33A C37U A39U G40C C46U, the self-cleavage worked out at 0.

Consider A12C U20C G21C G29U, for which the self-cleavage stood at 0. The result for A11U G27A G40A reads 0.01; that for A11U A12U A16G G33A, 0.01; that for A11G C13U G17U C18G U20G U43A, 0.01.

Take A11G G40C U43A: the self-cleavage was 0. Consider A11U A25G G36U C46U, for which the self-cleavage came to 0.01.

With A11G G19A A25G, the self-cleavage was 0.02.

Consider A12G C31G U38G, for which the self-cleavage was determined as 0.01. The result for A11U G19A U28A reads 0.03; that for A11U G30C C42G C46U, 0.03; that for A11U C15G G36A G40U, 0.04.

Consider A11G G29U U32A, for which the self-cleavage was determined as 0.01. A12G C15G U20C A24G A41U: the self-cleavage turned out to be 0.02. Turning to A11G C23U G44U, the self-cleavage worked out at 0.04. With A11U G17C G33U C42G, the self-cleavage worked out at 0. As to A11G G17U G21U A25C, the self-cleavage amounted to 0. The result for A11U C13G A26G G27U U38C reads 0.02; that for A12C A14C G27U U43A, 0.01; that for A11G G19A G33A C45A, 0.01. Regarding A11G A26U C31A U43A, the self-cleavage turned out to be 0.01.

Turning to A12C C15U G27U G44A, the self-cleavage was determined as 0.01. The result for A11G G19A G33U C45G reads 0.04; that for A11U G22U C31U A41C, 0.01. A11U C15A C46U: the self-cleavage worked out at 0.04. The result for A12C A16U U20C G33A reads 0.01; that for A11U C23A G33A, 0.01. The result for A12C A25G C37A A39G reads 0; that for A11G C15A A25G G40U, 0; that for A12C G36U C37U U43A, 0.01. The value for A11G G21A A39G was 0.01. Consider A12C C13U G19U G27C G29A G33A G36C, for which the self-cleavage came out at 0.02. As to A11U C15A G33C A39C, the self-cleavage came out at 0. The value for A11G C15G C37U A41U C42A was 0.01; that for A11U G17A G21C U28C C45U was 0.02. The result for A12G C31A C45A reads 0.14; that for A11U A16G G29A G30A G33A, 0.01. Take A11G G44A C46U: the self-cleavage worked out at 0.03. The result for A11U C15A A16C G27C C46U reads 0. A11G A24C U28A U32G: the self-cleavage is 0.01. The result for A11U U20A A25U G36U G44C reads 0.01; that for A12C G22C G40A, 0.03. Regarding A11U C18A A26G, the self-cleavage is 0.12.

As for A11G C18U G40C, the self-cleavage was 0.01. The value for A11G U32A A41C was 0.02; that for A11G G19U G22A C45G was 0.02.

With A11U A12U U28G G30C, the self-cleavage amounted to 0.03.

As for A12G A16C G21U G27U U32G G36U G40A C46G, the self-cleavage was 0.01. Consider A11U G17U G33A G36C C46A, for which the self-cleavage was 0.01. Turning to A11G G21A A24U A39G, the self-cleavage was found to be 0.02. The value for A11U A12C G21A was 0.01. On to A12G C18A A24C U32A, for which the self-cleavage was 0.01. The result for A12C C18U G21C C31U reads 0.01; that for A12C C31U A39U, 0.02. As to A11U G21A A26C G29C G30A U32A G36A C42U C46G, the self-cleavage was 0. A11G U34A C46U: the self-cleavage worked out at 0.02. In the case of A11U A12C C13U C15G U34C, the self-cleavage was determined as 0.02. Consider A12C G19U G35U U38G G40C, for which the self-cleavage is 0.02.

Regarding A11G C18G G22U A26U, the self-cleavage stood at 0.01. The result for A12G G19A A26G reads 0; that for A12C A16G U28G, 0; that for A11U C15U A26U G30U C31U C42U G44A, 0.

A12C G27U A39U: the self-cleavage worked out at 0.03. The value for A11U C18U G21U G27A was 0.14; that for A11U C13G C18G A41U C45A C46G was 0.

For the variant A12G A16G A25U C31G, the self-cleavage is 0.02. The result for A12G C15G A24G C31U G33A G35U reads 0.01; that for A12G G19C A24U G33A C37A, 0.03. The result for A11U C23G G29A U38G reads 0. The result for A11U A25U C31U reads 0.19; that for A12C A16C G35U, 0.01; that for A12G C31A U38C G44A, 0.08. Turning to A12C C23G A24U, the self-cleavage came to 0.01.

With A11U A26G G40C, the self-cleavage came out at 0.02. Turning to A12C G17U U28C G29U U34C U38G U43C G44U, the self-cleavage was determined as 0. The result for A12C C23G C46U reads 0.01; that for A12C G30A C42A, 0.03; that for A11G A41U G44A, 0.01. The value for A11G G22U A24U C42A was 0.02; that for A11U G22U U43C was 0.04; that for A12G G22U G40U A41C was 0.02.

For the variant A12G C13U C18U C31A U43C, the self-cleavage amounted to 0.02.

As for A11U G17C G19U U20A G27U U34A, the self-cleavage came to 0.01.

With A11G C15U U32A, the self-cleavage is 0.01. On to A11G A24C G29A A41U, for which the self-cleavage is 0.01. With A11G G27C U28C G40A, the self-cleavage came out at 0.01. The value for A12C C15G A24C C46G was 0.02.

On to A12G C18A A39U, for which the self-cleavage was 0. In the case of A12G C13G G17A U28G G29U G36A, the self-cleavage was determined as 0.01.

For A11G G27C U28G U34G, the self-cleavage was found to be 0.01. A11U G19C G30A: the self-cleavage stood at 0.13. The value for A11G A25G C37U was 0.02; that for A12G G19C A25U was 0.04. The value for A11G C13G C15G G30C G33A was 0.02. The result for A12G G21C C45G reads 0.01; that for A11U C37G A41C, 0.04. Regarding A11U G19A G29U U32G, the self-cleavage stood at 0.01. Consider A12G C15G A16U C18U, for which the self-cleavage came to 0.03.

Take A12C A25C C45G: the self-cleavage was 0.01. The value for A11U G19C A24G G29U was 0.09; that for A12C C13G G36C was 0.01.

Turning to A11U G35U C46U, the self-cleavage was 0.03.

In the case of A11G G21C G40U, the self-cleavage is 0.02. For the variant A11U C15U C18A G36C G40A C45G, the self-cleavage stood at 0. On to A12G C15A C46G, for which the self-cleavage came to 0.05. A11G G19U G21A C42A: the self-cleavage worked out at 0.01. Regarding A12G C23A G35U, the self-cleavage amounted to 0.02. With A11G A26C G27A A39G G40U G44A, the self-cleavage came to 0.01. For A12C A24G C37G, the self-cleavage was determined as 0.03. The result for A12G C13A C31G reads 0.03. The result for A12C C23A U34C G36A reads 0.02; that for A12G G17U C23U, 0.02. The value for A12G C37A G44A C45U C46G was 0.04. A11U A24C G33U: the self-cleavage was determined as 0.01. The value for A11U G22C G35U C46G was 0.01; that for A11U A12C C37A C42G was 0; that for A12G C13G G21U U34A was 0.05. For A12G C13G G36U, the self-cleavage worked out at 0.04. The value for A11G G36A G44U was 0.02; that for A11U G19A G30A was 0.05; that for A12C A16C A25U A41G was 0.02. As for A11G G30U C31A U38C A41U, the self-cleavage turned out to be 0.01. With A12C G29A G44C, the self-cleavage is 0. The result for A12G G17U G19A U20C C37U G40C reads 0.05. As to A12G A41C U43G C45A C46U, the self-cleavage was 0. A12G C18U A26U G33A: the self-cleavage turned out to be 0.16.

As to A11U U20C A39G C46U, the self-cleavage was determined as 0.04. The value for A11U C23A C45U was 0.08. In the case of A11G A16U G19U A41U, the self-cleavage was found to be 0.01. The result for A11U C13G C15U G21C C23A C46U reads 0; that for A11U U20A G27A G40A G44C, 0.03; that for A11U C15A G19C, 0.06. In the case of A12C G27A U38G, the self-cleavage stood at 0.01.

Consider A12G G22A G40A G44C, for which the self-cleavage was 0.05. The value for A12C G19U G40A was 0.03; that for A11G C18A G30C was 0.03. The result for A11U C13G C15U C46G reads 0.03; that for A12C C18A C42G, 0.03. For A11U A12U U38G, the self-cleavage came to 0.02. The value for A12G G17U G29U U34A was 0.01; that for A11G G35U A39U A41U was 0.01; that for A11G G17A C31U G35U was 0.07. In the case of A11U A16U U28A U34A, the self-cleavage turned out to be 0.06. With A11U C13A U28A, the self-cleavage turned out to be 0.02. The result for A11G G17A G21U G22U reads 0.02. The result for A12C C31U C46A reads 0.04. The value for A12C G19C G29A C42U was 0. For A11G G21A A24G C31G A41G, the self-cleavage stood at 0.07. The result for A11G C15A G29U reads 0.03; that for A12C C18A U32G, 0.01. Take A12C G21U A26C U32C C46A: the self-cleavage turned out to be 0.

For the variant A11G U28C C46G, the self-cleavage came to 0.01.
